The values that follow come from ChEMBL document CHEMBL1961873, “Compounds: GSK PKIS; Assays: Nanosyn kinase panel” (2012).

For orientation: inhibition means the relative decrease from the control value, in per cent.

Experiment [1] deals with Mitogen-activated protein kinase 3 (Homo sapiens) (UniProt P27361). Conditions: at 1 µM.
The target of experiment [2] is SRSF protein kinase 3 (Homo sapiens) (UniProt Q9UPE1). Conditions: at 0.1 µM.
Experiment [3] shares this target. Conditions: at 1 µM.
Experiment [4] has as its target Mitogen-activated protein kinase 11 (Homo sapiens) (UniProt Q15759). Conditions: at 0.1 µM.
Experiment [5] shares this target. Conditions: at 1 µM.
In experiment [6] the target is T1, Mitogen-activated protein kinase 13 (Homo sapiens) (UniProt O15264).
T1 sequence (whole entry): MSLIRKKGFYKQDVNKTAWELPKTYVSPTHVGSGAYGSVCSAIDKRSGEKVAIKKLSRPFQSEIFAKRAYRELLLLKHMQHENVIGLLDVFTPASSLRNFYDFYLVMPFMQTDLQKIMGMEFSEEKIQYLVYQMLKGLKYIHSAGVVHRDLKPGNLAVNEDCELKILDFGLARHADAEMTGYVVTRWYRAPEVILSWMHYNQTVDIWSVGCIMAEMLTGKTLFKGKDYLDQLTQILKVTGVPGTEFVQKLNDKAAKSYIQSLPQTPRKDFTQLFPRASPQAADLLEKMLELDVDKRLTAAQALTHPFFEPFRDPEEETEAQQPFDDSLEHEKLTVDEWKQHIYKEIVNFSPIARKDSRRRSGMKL
The settings on record: at 0.1 µM.

The target in experiment [7] is T1, Mitogen-activated protein kinase 13 (Homo sapiens). The settings on record: at 1 µM.
Experiment [8] deals with T2, Mitogen-activated protein kinase 12 (Homo sapiens) (UniProt P53778).
T2 sequence (whole entry): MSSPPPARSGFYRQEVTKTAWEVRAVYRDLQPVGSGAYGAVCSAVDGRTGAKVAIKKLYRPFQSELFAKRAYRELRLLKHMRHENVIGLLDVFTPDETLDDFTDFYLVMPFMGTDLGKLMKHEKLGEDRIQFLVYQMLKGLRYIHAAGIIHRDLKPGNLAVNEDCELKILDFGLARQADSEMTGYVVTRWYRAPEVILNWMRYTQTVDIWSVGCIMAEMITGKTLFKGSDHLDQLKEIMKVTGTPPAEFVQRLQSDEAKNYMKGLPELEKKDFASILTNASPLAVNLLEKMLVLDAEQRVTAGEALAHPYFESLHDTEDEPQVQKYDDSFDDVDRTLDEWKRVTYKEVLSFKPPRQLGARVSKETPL
The settings on record: at 0.1 µM.

The target in experiment [9] is Mitogen-activated protein kinase 14 (Homo sapiens) (UniProt Q16539). Conditions: at 0.1 µM.
Experiment [10] has the same target. The settings on record: at 1 µM.

SMILES strings stand for the structures. For some of these results: Shown are results outside the selection of strong results, which stands elsewhere. The entries are a selection whose mix differs from that of the whole data set.

Chain of UniProt Q9UPE1 (Q9UPE1 whole entry): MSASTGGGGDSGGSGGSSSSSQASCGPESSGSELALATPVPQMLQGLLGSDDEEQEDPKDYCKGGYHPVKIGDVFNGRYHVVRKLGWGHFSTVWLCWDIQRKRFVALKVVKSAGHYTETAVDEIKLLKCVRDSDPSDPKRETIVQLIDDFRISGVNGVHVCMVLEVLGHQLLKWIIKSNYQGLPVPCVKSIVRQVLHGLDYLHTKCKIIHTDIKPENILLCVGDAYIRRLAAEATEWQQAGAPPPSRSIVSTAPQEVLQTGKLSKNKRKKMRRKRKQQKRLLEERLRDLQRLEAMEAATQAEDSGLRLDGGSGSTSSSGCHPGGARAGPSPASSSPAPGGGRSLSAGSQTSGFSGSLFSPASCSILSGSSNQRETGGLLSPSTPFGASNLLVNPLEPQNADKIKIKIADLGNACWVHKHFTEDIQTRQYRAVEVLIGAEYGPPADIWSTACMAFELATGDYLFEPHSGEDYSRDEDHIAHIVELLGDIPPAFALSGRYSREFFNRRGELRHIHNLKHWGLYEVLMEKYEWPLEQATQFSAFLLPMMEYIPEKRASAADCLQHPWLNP
Chain of UniProt Q15759 (Q15759 whole entry): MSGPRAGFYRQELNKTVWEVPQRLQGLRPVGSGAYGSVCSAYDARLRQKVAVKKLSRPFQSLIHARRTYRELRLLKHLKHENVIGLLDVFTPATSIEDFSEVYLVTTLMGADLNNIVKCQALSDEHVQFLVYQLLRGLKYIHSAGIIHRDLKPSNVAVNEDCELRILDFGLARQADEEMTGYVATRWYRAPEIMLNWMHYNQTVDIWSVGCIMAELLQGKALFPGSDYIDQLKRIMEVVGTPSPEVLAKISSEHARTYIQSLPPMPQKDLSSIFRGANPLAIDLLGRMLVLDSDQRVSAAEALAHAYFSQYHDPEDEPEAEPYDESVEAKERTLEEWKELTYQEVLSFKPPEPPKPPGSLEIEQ
Chain of UniProt P27361 (P27361 whole entry): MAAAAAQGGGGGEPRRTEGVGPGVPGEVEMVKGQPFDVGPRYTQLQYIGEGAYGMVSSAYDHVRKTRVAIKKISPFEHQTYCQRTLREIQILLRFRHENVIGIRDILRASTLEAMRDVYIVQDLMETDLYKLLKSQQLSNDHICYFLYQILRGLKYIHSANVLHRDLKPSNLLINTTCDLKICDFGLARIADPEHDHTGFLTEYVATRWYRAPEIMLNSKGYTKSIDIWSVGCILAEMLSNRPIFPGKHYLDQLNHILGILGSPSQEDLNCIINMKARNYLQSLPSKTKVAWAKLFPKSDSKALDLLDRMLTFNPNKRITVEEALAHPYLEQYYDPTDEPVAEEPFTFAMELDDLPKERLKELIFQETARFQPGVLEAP
Chain of UniProt Q16539 (Q16539 whole entry): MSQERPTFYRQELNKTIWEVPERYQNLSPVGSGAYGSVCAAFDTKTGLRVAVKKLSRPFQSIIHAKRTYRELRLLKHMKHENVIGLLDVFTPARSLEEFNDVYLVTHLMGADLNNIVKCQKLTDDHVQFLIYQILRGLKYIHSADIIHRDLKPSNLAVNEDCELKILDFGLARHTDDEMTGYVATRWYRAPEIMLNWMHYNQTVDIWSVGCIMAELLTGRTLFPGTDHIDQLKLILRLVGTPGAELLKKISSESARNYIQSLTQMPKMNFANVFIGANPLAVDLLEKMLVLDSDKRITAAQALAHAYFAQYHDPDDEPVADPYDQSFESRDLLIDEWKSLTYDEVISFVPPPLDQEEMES

For `COc1ccccc1Oc1nccc(-c2c(-c3ccc(F)cc3)ncn2C2CCNCC2)n1`, the inhibition was 3.82% in experiment [1]; -1.68% in [2]; 1.72% in experiment [3]; 26.4% in experiment [4]; 71.1% in experiment [5]; 5.27% in [6]. Also, the values for the inhibition in [7] and in experiment [8] were 4.63% and 3.76%, respectively.
`CS(=O)(=O)c1ccc(Oc2nccc(-c3c(-c4ccc(F)cc4)ncn3C3CCNCC3)n2)cc1`: the inhibition in [1] is 5.63%; in [2] it was -2.24%; in experiment [3] it was 0.18%; in experiment [4], 4.92%; in experiment [5], 15.5%; in experiment [6] it was 4.98%. Besides, the results for the inhibition in experiment [7] and in experiment [8] were 3.28% and 3.56%, respectively.
For the compound `Fc1ccc(-c2ncn(C3CCNCC3)c2-c2ccnc(Oc3ccc(Cl)cc3)n2)cc1`, the inhibition in experiment [1] is 2.88%; in experiment [2], 0.73%; in experiment [3], 0.55%; in experiment [4] it was 8.68%; in experiment [5], 42.5%; in [6], 1.4%. For the same compound, the inhibition in [7] worked out at 0.44%; in [8], 0.84%.
In the case of `Fc1ccc(Oc2nccc(-c3c(-c4ccc(F)cc4)ncn3C3CCNCC3)n2)cc1`, the inhibition was 6% in experiment [1]; 2.65% in experiment [2]; -0.46% in [3]; 5.66% in experiment [4]; 33.1% in experiment [5]; 4.75% in experiment [6]. Besides, the results for the inhibition in experiment [7] and in experiment [8] were 6.61% and 3.85%, respectively.
Take `Cc1cccc(Oc2nccc(-c3c(-c4ccc(F)cc4)ncn3C3CCNCC3)n2)c1C`: the inhibition in experiment [1] was 3.01%; in experiment [2], 1.75%; in experiment [3], -0.51%; in experiment [4], 34.4%; in experiment [5] it was 68.2%; in [6] it was 3.97%. In addition, the figures for the inhibition in experiment [7] and in experiment [8] were 2.75% and 3.14%, respectively.
Consider `COc1ccccc1C1=C(Nc2ccccc2)C(=O)NC1=O`, for which the inhibition in [1] was 2.72%; in experiment [2] it was 0.61%; in experiment [3] it was 9.64%; in experiment [9] it was 5.25%; in experiment [10], 13.6%; in experiment [4], 3.59%. Also, the inhibition in experiment [5] is 5.91%; in experiment [6] it was 2.83%; in [7], 3.46%; in [8] it was 0.9%.
In the case of `O=C(O)c1ccc(Oc2nccc(-c3c(-c4ccc(F)cc4)ncn3C3CCNCC3)n2)cc1`, the inhibition in [1] is 4.29%; in experiment [2], 3.8%; in experiment [3], -1.52%; in [4], 4.43%; in experiment [5] it was 14.8%; in [6] it was 4.94%. The inhibition stood at 6.2% in experiment [7] and 3.9% in [8].
As to `CC(C)(C)c1ccc(Oc2nccc(-c3c(-c4ccc(F)cc4)ncn3C3CCNCC3)n2)cc1`, the inhibition in experiment [1] is 11.1%; in experiment [2] it was -1.69%; in [3] it was -0.95%; in experiment [4], 47.9%; in experiment [6], 4.42%; in [7], 3.59%. For the same compound, the inhibition in experiment [8] worked out at 3.38%.
As to `O=C1NC(=O)C(c2ccccc2Cl)=C1Nc1cc(Cl)c(O)c(Cl)c1`, the inhibition in experiment [1] worked out at 2.08%; in [2] it was 1.01%; in experiment [3], 5.67%; in experiment [9] it was 2.4%; in [10], 5.09%; in experiment [4], 2.74%. Besides, the inhibition in [5] was determined as 5.93%; in [6], 2.21%; in [7], 4.86%; in [8], 0.28%.
Regarding `O=C1NC(=O)C(c2cccc([N+](=O)[O-])c2)=C1Nc1cc(Cl)c(O)c(Cl)c1`, the inhibition in [1] was 2.24%; in [2], -1.26%; in experiment [3] it was -0.59%; in experiment [9], 2.42%; in [10], 6.98%; in [4], 3.03%. Moreover, the inhibition in experiment [5] is 1.62%; in experiment [6], 1.29%; in experiment [7] it was -0.48%; in experiment [8] it was 1.04%.
For the compound `Fc1ccc(-c2ncn(C3CCNCC3)c2-c2ccnc(Oc3cccc(F)c3)n2)cc1`, the inhibition in [1] was 5.44%; in experiment [2] it was -0.5%; in [3], -0.04%; in [4], 14.2%; in experiment [5], 54.6%; in experiment [6] it was 6.49%. For the same compound, the inhibition in experiment [8] was 4.93%.
As to `O=C1NC(=O)C(c2ccccc2)=C1Nc1ccccc1`, the inhibition in experiment [1] was 3.62%; in experiment [2], -0.95%; in experiment [3], -0.16%; in experiment [9] it was 5.29%; in experiment [10], 8.65%; in [4], 5.95%. Also, the inhibition is 6.14% in experiment [5], 3.54% in experiment [6], 8.68% in [7] and 1.66% in experiment [8].
In the case of `NC(=O)CCc1ccccc1Oc1nccc(-c2c(-c3ccc(F)cc3)ncn2C2CCNCC2)n1`, the inhibition in experiment [1] is -0.69%; in [2] it was 0.1%; in experiment [3], 0%; in [4], 5.28%; in experiment [5], 30.4%; in experiment [6], -1.72%. In addition, the inhibition was -2.56% in experiment [7] and -2.24% in experiment [8].
For the compound `Fc1ccc(-c2ncn(C3CCNCC3)c2-c2ccnc(Oc3cccc(C(F)(F)F)c3)n2)cc1`, the inhibition was 5.11% in [1]; -2.9% in experiment [2]; -0.93% in [3]; 5.28% in experiment [4]; 20.2% in [5]; 5.74% in experiment [6]. Also, the values for the inhibition in experiment [7] and in experiment [8] were 4.72% and 6.39%, respectively.
